Hit rate of the full screen: of about 360,000 compounds, about 2,600 (0.72%) were called active. Inconclusive means that the source gave no clear call. Such entries were picked first, then a sample of the others. Calls come from the whole dose curve; as a rule, active = well fitted inhibition curve with a large enough effect; inconclusive = small, poorly fitted or top-dose-only effect; inactive = no such curve, though single readings can be large or run the other way. A potency beside an inconclusive call is a rough fit, not a confirmed value.
Test: Primary qHTS for Inhibitors of ATXN expression; note: nearly all actives have a fitted effect of over 55% in size
Conditions: HEK-293 ATXN2-luciferase reporter, luminescence, 24 h; series mostly up to 57 µM
Outline: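 qHTS (up to 57 uM final) was run with 24 h compound exposure of reporter cells at 37 °C. Each well was multiplexed: SteadyGlo luminescence measured ATXN2-luciferase expression after a fluorogenic Gly-Phe-AFC viability readout (25 uM final).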
Potency is the fitted concentration of half-maximal effect; tags give direction and shape of the fitted curve.

| Compound | Potency |
| --- | --- |
| CCCCNc1nc(NCc2ccccc2)nc2ccccc12 | active: 22.4 µM |
| Cc1cnc(CNC(=O)c2c(=O)c3ccc(N4CCCN(C)CC4)nc3n3c2sc2ccccc23)cn1 | inconclusive: 4.73 µM [inhibitor, partial curve] |
| COC(=O)c1ccc(NC(=O)CN2C(=O)CCc3cc(S(=O)(=O)N4CCCCC4)ccc32)cc1 | inactive |
| COC(=O)c1sc(N2CCN(c3ccc(Cl)cc3)CC2)nc1N | inconclusive: 15.8 µM [inhibitor, partial curve, poor fit] |
| Cc1cccc(Nc2nnc(-c3ccc(C)c(S(=O)(=O)NCC4CCCO4)c3)c3ccccc23)c1 (configuration not stated) | inconclusive: 17.8 µM [inhibitor, partial curve, poor fit] |
| CCOC(=O)c1ccc(N2C(=O)c3n[nH]c(-c4ccco4)c3C2c2ccc(O)c(OCC)c2)cc1 (configuration not stated) | inconclusive: 39.8 µM [inhibitor, single point] |
| Oc1ccc(N=Nc2ccc3c(c2)OCCO3)c2cccnc12 | inconclusive: 9.47 µM [inhibitor, partial curve, poor fit] |
| Cc1cccc(-n2c(Cc3ccccc3)nnc2SCc2nc(-c3cccs3)no2)c1 | inconclusive: 39.8 µM [inhibitor, single point] |
| O=C(NC1CCCCC1)c1ccc(CSc2nc3cccnc3n2Cc2ccc(F)cc2)cc1 | inconclusive: 10 µM [inhibitor, partial curve, poor fit] |
| CCC(=O)N1CCN(c2ccc(NC(=O)c3cc4ccccc4o3)cc2Cl)CC1 | inconclusive: 25.1 µM [inhibitor, single point] |
| O=C(c1cc(O)c(O)c(O)c1)c1ccc(O)c(O)c1O | inconclusive: 31.6 µM [inhibitor, single point] |
| Cc1ccc(S(=O)(=O)Cc2ccc(C(=O)NCCc3ccc(Cl)cc3)o2)cc1 | inconclusive: 39.8 µM [inhibitor, single point] |
| Cn1nc(-c2ccccc2F)c2cc(C(=O)NCCc3ccc(Cl)cc3)sc21 | inconclusive: 31.6 µM [inhibitor, partial curve, poor fit] |
| CC1CCCC(NC(=O)CN2C(=O)NC(C)(c3cc(F)ccc3F)C2=O)C1C (configuration not stated) | inactive |
| CCC(=O)Nc1cccc(C(=O)/C=C/c2ccccc2)c1 | inconclusive: 39.8 µM [inhibitor, single point] |
| Cc1nn(-c2ccccc2Cl)c(Cl)c1/C=N/Nc1cccc(C(=O)O)c1 | inconclusive: 14.1 µM [inhibitor, partial curve, poor fit] |
| CCn1c(SCC(=O)Nc2cc(C)on2)nc2sc3c(c2c1=O)CCCC3 | inconclusive: 5.01 µM [inhibitor, full curve] |
| CSc1ccc(/C=N/N2CCN(Cc3ccc(Cl)cc3)CC2)cc1 | inconclusive: 28.2 µM [inhibitor, partial curve, poor fit] |
| CCn1cc(Cl)c(C(=O)N2N=C(c3ccc4ccccc4c3)CC2c2ccccc2O)n1 (configuration not stated) | active: 17.8 µM |
| COc1cccc(C2CC(=O)Nc3cc4c(cc32)OCO4)c1OC(C)C (configuration not stated) | inconclusive: 39.8 µM [inhibitor, single point] |
| O=S(=O)(c1ccc(Cl)cc1)c1cnc(-c2cccnc2)nc1-c1ccccc1 | inconclusive: 28.2 µM [inhibitor, single point] |
| Cc1cc(/C=N/NC(=O)c2ccc(O)cc2)c(C)n1C1CC1 | inactive |
| CCN(CC)C(=O)CSc1nc2c(sc(=S)n2-c2ccccc2)c(=O)n1Cc1ccco1 | inconclusive: 7.08 µM [inhibitor, partial curve, poor fit] |

| Compound | Potency |
| --- | --- |
| CCOCC(=O)Nc1c(C(=O)Nc2ccc(OC)cc2OC)oc2ccccc12 | inactive |
| COc1cc(CNc2nc3c(C)cc(C)cc3s2)ccc1O | inconclusive: 3.55 µM [inhibitor, partial curve, poor fit] |
| COc1cc(OC)c(OC)cc1/C=N/NC(=O)c1cnccn1 | inactive |
| CCCOc1ccc(/C=N/Nc2ccccc2[N+](=O)[O-])c(O)c1 | inconclusive: 20 µM [inhibitor, single point] |
| CC(NCc1ccc2c(c1)OCO2)c1ccccc1 (configuration not stated) | inactive |
| C=CS(=O)(=O)c1ccc(Oc2ccc(S(=O)(=O)C=C)cc2)cc1 | active: 8.91 µM |
| O=C1c2cccc(OCC(=O)N3CCCc4ccccc43)c2CCN1Cc1ccc(Br)cc1 | inconclusive: 35.5 µM [inhibitor, single point] |
| CCc1nn(CCCC(=O)N2CCN(c3cc(Cl)ccc3C)CC2)c(=O)c2cc3occc3n12 | inconclusive: 39.8 µM [inhibitor, single point] |
| Cc1ccoc1C(=O)Nc1ccc2ccccc2c1 | inconclusive: 39.8 µM [inhibitor, single point] |
| CCOc1ccc2nc(NC(=O)C3CCCN(S(=O)(=O)c4c(C)noc4C)C3)sc2c1 (configuration not stated) | inconclusive: 20 µM [inhibitor, single point] |
| N#C/C(=C/c1ccc(Sc2nc3ccccc3[nH]2)o1)c1cccc(Br)c1 | inconclusive: 10 µM [inhibitor, partial curve] |
| CCCCOc1ccc(NC(=O)CSc2nnnn2C)cc1 | inactive |
| O=C(Nc1ccc(Oc2ccc(NC(=O)Nc3ccc([N+](=O)[O-])cc3)cc2)cc1)Nc1ccc([N+](=O)[O-])cc1 | inconclusive: 28.2 µM [inhibitor, single point] |
| COC(=O)C1=[N+]([O-])OC(C(=O)OC)C1c1c[nH]c2ccccc12 (configuration not stated) | inactive |
| Cc1nn(-c2ccccc2)c(N)c1N=Nc1ccccc1 | inactive |
| CCn1c(C)nc2cc(C(=O)N/N=C/c3cccc(OC)c3O)ccc21 | active: 14.1 µM |
| COc1ccc(CNC(=O)c2ccc3nc(CCc4ccccc4)oc3c2)cc1OC | active: 28.2 µM |
| Cc1ccc2nc3c(c(N)c2c1)CCN3c1ccccc1 | inactive |
| O=C1/C(=C/c2ccncc2)CCC/C1=C\c1ccncc1 | active: 14.1 µM |
| C=CCn1c(NCCc2ccccc2)nc2c1c(=O)n(C)c(=O)n2C | inconclusive: 12.6 µM [inhibitor, partial curve, poor fit] |
| COc1ccc(-n2nc3c(N4CCCC(C(=O)NCc5ccc(C)cc5)C4)nnc(C)c3c2C)cc1 (configuration not stated) | inconclusive: 12.6 µM [inhibitor, partial curve, poor fit] |
| Oc1[nH]c2ccccc2c1C=Nc1ccc2c(c1)OCCO2 | inactive |
| O=C(Nc1ccc2oc(=O)ccc2c1)c1ccc(-c2ccccc2[N+](=O)[O-])o1 | inactive |

| Compound | Potency |
| --- | --- |
| CCCS(=O)(=O)Nc1ccc(F)c(C(=O)c2c[nH]c3ncc(-c4ccc(Cl)cc4)cc23)c1F | inconclusive: 21.7 µM [inhibitor, partial curve] |
| O=C(Nc1ccc(Cl)cc1)Nc1nnc(-c2ccncc2)s1 | inconclusive: 12.6 µM [inhibitor, partial curve] |
| CC(Oc1ccc(Cl)cc1Cl)C(=O)NNC(=O)c1cccnc1 (configuration not stated) | inactive |
| OCCN(Cc1ccccc1)C(=S)NC1CCCCC1 | inactive |
| CCN(CCCCN1C(=O)c2ccccc2C1=O)c1ccc2c(c1)C(=O)N(C)C2=O | inconclusive: 22.4 µM [inhibitor, partial curve, poor fit] |
| O=[N+]([O-])c1ccc(S(=O)(=O)c2cccc(C(F)(F)F)c2)nc1 | inconclusive: 39.8 µM [inhibitor, single point] |
| CCOC(=O)c1cnc(-n2nc(C)cc2C)nc1NNc1nc(-c2ccccc2)cc(-c2ccccc2)n1 | inconclusive: 20 µM [inhibitor, single point] |
| OCCOCCn1c(C2CCCN2c2nc(-c3ccc(F)cc3)cs2)nc2cc(C(F)(F)F)ccc21 (configuration not stated) | inconclusive: 39.8 µM [inhibitor, single point] |
| CCCCC[C@@H](C)N1C[C@@H](COCc2ccccc2)Oc2cc(N3CCC[C@@H]3CO)ccc2S1(=O)=O | inconclusive: 31.6 µM [inhibitor, single point] |
| CCC(C)[C@H]1CNCCN1CCc1cc(C(F)(F)F)cc(C(F)(F)F)c1 (some centres not stated) | inconclusive: 35.5 µM [inhibitor, single point] |
| CCOC(=O)/C=C/C(=O)Nc1ccc(S(=O)(=O)N2CCCCCC2)cc1 | inactive |
| CC(=O)Nc1cccc(Oc2nc(NC(C)C)nc3cc(-c4ccccc4)sc23)c1 | inconclusive: 39.8 µM [inhibitor, single point] |
| CN(CCOc1ccc(Br)cc1)CC(O)COc1ccc(C#N)cc1 (configuration not stated) | inconclusive: 25.1 µM [inhibitor, single point] |
| O=C(Cn1c(=O)oc2cc(S(=O)(=O)N3CCCC3)ccc21)N1CCN(c2ccccc2)CC1 | inconclusive: 8.91 µM [inhibitor, partial curve, poor fit] |
| Oc1ccc(N2CCN(C(c3ccncc3)c3nnnn3C3CCCC3)CC2)cc1 (configuration not stated) | inconclusive: 17.8 µM [inhibitor, partial curve, poor fit] |
| C=CCc1cccc(/C=N/NC(=O)CCC(=O)Nc2ccc(F)cc2)c1O | active: 3.55 µM |
| C=CC(C)(C)c1[nH]cnc1/C=C1\NC(=O)C(C(C)C)NC1=O (configuration not stated) | inactive |
| CC(C)Nc1nc(NCCOc2ccccc2Cl)c2sc(-c3ccccc3)cc2n1 | inconclusive: 31.6 µM [inhibitor, single point] |
| Cn1nc(C(=O)Nc2cccc(S(=O)(=O)N3CCCCC3)c2)c2ccccc2c1=O | inactive |
| O=C(CCc1ccccc1)NC(=S)Nc1ccccc1[N+](=O)[O-] | inactive |
| COCCN=c1scc(-c2ccc3c(c2)NC(=O)CO3)n1/N=C(\C)c1ccc(O)cc1 | inactive |

Source: PubChem BioAssay AID1745845 (National Center for Advancing Translational Sciences (NCATS), 2022)
